Assay results published in PubChem BioAssay AID686978 (National Center for Advancing Translational Sciences (NCATS), 2013).
In all, about 420,000 compounds went through this assay and about 64,000 (15%) were called active. Inconclusive means that the source gave no clear call. Such entries were picked first, then a sample of the others. Calls follow the shape of the dose curve; as a rule, active = well fitted inhibition curve with a large enough effect; inconclusive = small, poorly fitted or top-dose-only effect; inactive = flat fitted curve, though single readings scatter. Potencies of inconclusive entries are left out as doubtful fits.
Potency is read from the fitted curve at half-maximal effect; tags tell the direction and shape of the fitted curve.

Test: qHTS for Inhibitors of human tyrosyl-DNA phosphodiesterase 1 (TDP1): qHTS in cells in absence of CPT; also: nearly all actives have a fitted effect of over 55% in size
Settings: DT40 Tdp1-/- hTDP1 cells, no CPT, ATP luminescence, 48 h; series mostly up to 46.2 µM
In short: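 Luminescent ATP content (CellTiter-Glo) served as the growth readout. Knockout chicken DT40 cells expressing human TDP1 were exposed to compounds without camptothecin for a minimum 48 hr at 37 °C.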
With `CC(NC(=O)c1ccc(CSc2nc3ccncc3n2Cc2ccc(F)cc2)cc1)c1ccccc1` (stereo unspecified) the Potency was inconclusive [inhibitor, single point]. In the case of `O=C1C2C3C=CC(C3)C2C(=O)N1/N=C/c1cn(Cc2ccc(F)cc2)c2ccccc12` (stereo unspecified), the Potency is reported as “inactive”. For `Cc1ccc(Nc2nc(NCc3ccccc3)nc3ccsc23)c(C)c1`, the Potency was active: 6.51 µM. For `Cc1ccc(C(=O)NCC(=O)NCC(c2cccs2)N2CCOCC2)cc1C` (stereo unspecified), the Potency was “inactive”. In the case of `CCn1cc(CN2CCCC(CNS(=O)(=O)Cc3ccccc3)C2)cn1` (stereo unspecified), the Potency is reported as “inactive”. For `CC(C)CCNC(=O)Cn1c(SCc2cccc(F)c2)nc2ccncc21`, the Potency was inconclusive [inhibitor, single point]. For `COC(=O)c1ccc(NC(CC(C)C)C(=O)OC)c([N+](=O)[O-])c1` (stereo unspecified), the Potency was inconclusive [inhibitor, single point]. For `O=S(=O)(c1ccccc1)c1nc(-c2cccs2)oc1N1CCCCC1`, the Potency was inconclusive [inhibitor, partial curve]. For `O=C(O)/C=C/C(=O)Nc1ccc(Cl)c(C(=O)O)c1`, the Potency was “inactive”. For `Cc1ccc2c(c1)C(O)(CC(=O)/C=C/C=C/c1ccccc1)C(=O)N2` (stereo unspecified), the Potency was inconclusive [inhibitor, partial curve]. In the case of `CCN(CC)S(=O)(=O)c1ccc(NN=C2CCN(C(C)C)CC2)c([N+](=O)[O-])c1`, the Potency is reported as inconclusive [inhibitor, single point]. With `CCN(CC)S(=O)(=O)c1cc(C(=O)OCC(=O)NC2CCCc3ccccc32)ccc1C` (stereo unspecified) the Potency was inconclusive [inhibitor, partial curve]. With `Cc1nc(Cl)sc1C(=O)Nc1ccc(F)cc1` the Potency was “inactive”. With `Cc1cccc(OCC(=O)OCC(=O)NCC2CCCO2)c1C` (stereo unspecified) the Potency was “inactive”. In the case of `Cc1ccc(-c2nc(-c3cccnc3)sc2CC(=O)Nc2ccc3nc(C)sc3c2)cc1`, the Potency is reported as inconclusive [inhibitor, partial curve]. In the case of `CCCCC(=O)OCC(=O)c1[nH]c(C)c(C(C)=O)c1C`, the Potency is reported as “inactive”. In the case of `Cc1ccc(C)c(OCC(=O)Nc2nonc2NC(=O)COc2cc(C)ccc2C)c1`, the Potency is reported as inconclusive [inhibitor, partial curve, poor fit]. For `Cc1cc(Nc2cccc(F)c2)nc(-c2ccccc2O)n1`, the Potency was inconclusive [inhibitor, single point]. In the case of `Cc1cc(C)cc(NC(=O)Nc2ccc(NC(=O)c3ccccc3O)cc2)c1`, the Potency is reported as active: 20.6 µM. With `Cc1cc(C)n(-c2ncnc3c2oc2ccccc23)n1` the Potency was inconclusive [inhibitor, single point]. For `Nc1cc(Nc2ccc(Br)cc2)nc(N)n1`, the Potency was inconclusive [inhibitor, partial curve]. With `O=C1Nc2ccccc2-n2nnnc2C1N1CCN(C(=O)c2ccco2)CC1` (stereo unspecified) the Potency was “inactive”. For `CCCCCOC(=O)C1=C(C)NC(=O)NC1c1ccc([N+](=O)[O-])cc1` (stereo unspecified), the Potency was inconclusive [inhibitor, single point]. For `CC(C)COc1cccc(C(=O)N(CC(=O)Nc2ccccc2C(F)(F)F)Cc2ccco2)c1`, the Potency was active: 18.4 µM. In the case of `CCN(CC(=O)NCc1cccs1)C(=O)c1ccc(S(=O)(=O)N(C)c2ccccc2)cc1`, the Potency is reported as inconclusive [inhibitor, partial curve]. In the case of `CCOC(=O)c1c(NC(=O)CSc2nncs2)sc(C)c1-c1ccccc1`, the Potency is reported as inconclusive [inhibitor, single point]. For `O=[N+]([O-])C(=C1NCCN1)C(Cl)=C(Cl)Cl`, the Potency was inconclusive [inhibitor, single point]. For `CC1(C)OC2CC3C4CC(F)C5=CC(=O)C=C[C@@]5(C)[C@@]4(F)C(O)C[C@@]3(C)[C@]2(C(=O)CO)O1` (stereo partly specified), the Potency was “inactive”. In the case of `COc1ccc(-n2c(=O)[nH]cc(C(=O)Nc3ccc4c(c3)OCCO4)c2=O)cc1OC`, the Potency is reported as “inactive”. With `O=C(CSC1=NS(=O)(=O)c2ccccc21)Nc1ccccc1` the Potency was active: 2.59 µM. With `O=C(Nc1cc2c3c(c1)CC(=O)N3CCC2)c1ccccc1C(F)(F)F` the Potency was inconclusive [inhibitor, single point]. For `CC(=O)N[C@@H](Cc1c[nH]c2ccccc12)C(=O)NC1CC1`, the Potency was “inactive”. With `Cc1ccc(S(=O)(=O)c2cc3c(=O)n4ccccc4nc3n(CCc3ccccc3)c2=N)cc1` the Potency was active: 16.4 µM. With `CCN(CC)CC(O)COCCC12CC3CC(CC(C3)C1)C2` (stereo unspecified) the Potency was inconclusive [inhibitor, single point]. With `COCCNC(=O)c1ccc2c(c1)N(Cc1ccc(C(F)(F)F)cc1)C(=O)c1ccccc1S2` the Potency was inconclusive [inhibitor, single point]. In the case of `CCN(C(=S)Nc1ccccc1F)C1CCCCC1`, the Potency is reported as active: 23.1 µM. In the case of `CSc1ccc(C(=O)N2CCc3ccc(NC(=O)c4ccccn4)cc3C2)cc1`, the Potency is reported as inconclusive [inhibitor, single point]. With `O=C(NCc1cccc(C(F)(F)F)c1)C1CC2Cn3c(nc4ccccc43)C2N1Cc1ccccc1` (stereo unspecified) the Potency was active: 13 µM. For `Cc1ccc2cccc(OCC(=O)Nc3cccc(S(=O)(=O)N4CCCC4)c3)c2n1`, the Potency was active: 16.4 µM. For `O=C(c1ccc2ccccc2c1)C1CCCN(S(=O)(=O)c2cccnc2)C1` (stereo unspecified), the Potency was active: 20.6 µM. With `COCCNC(=S)N1CCN(c2nc(-c3ccccc3)cs2)CC1` the Potency was active: 18.4 µM. With `Nc1c(C(=O)NCCc2ccccc2)sc2nc(N3CCOCC3)c3c(c12)CCCC3` the Potency was active: 23.1 µM. For `Cc1ccc2nc(-c3ccc(NC(=O)CSc4ccccc4)cc3)[nH]c2c1`, the Potency was active: 16.4 µM. With `Cc1ccc(S(=O)(=O)N2CCC(C(=O)Nc3ccncc3)CC2)cc1` the Potency was inconclusive [inhibitor, single point]. For `Cc1ccc(S(=O)(=O)N(C)Cc2ccccc2)cc1C(=O)N1CCCCC1`, the Potency was inconclusive [inhibitor, single point]. With `CCN(Cc1ccc(OC)c(F)c1)C(=O)c1oc2ccccc2c1COC` the Potency was inconclusive [inhibitor, single point]. For `CN(C)c1ccc(NC(=O)CSC2=Nc3ccccc3C3=NC(CC(=O)NCc4ccc5c(c4)OCO5)C(=O)N23)cc1` (stereo unspecified), the Potency was inconclusive [inhibitor, single point]. In the case of `Oc1ccc(NCc2ccccc2OCc2ccccc2Cl)cc1`, the Potency is reported as active: 5.17 µM. In the case of `CC(C)(C)N1C(=O)[C@H]2[C@@H](c3ccc(Br)cc3)N3C(=O)N(c4ccc(Br)cc4)C(=O)[C@@]3(Cc3ccccc3)[C@H]2C1=O`, the Potency is reported as inconclusive [inhibitor, single point]. With `CC(C)Cc1cc(C(=O)Nc2cc(C(F)(F)F)ccc2Cl)no1` the Potency was “inactive”. In the case of `O=Cc1ccccc1OCCOc1ccc([N+](=O)[O-])cc1`, the Potency is reported as “inactive”. In the case of `O=C(O)c1ccc(NC(=O)c2cn(-c3ccccc3)nc2-c2ccccc2)cc1`, the Potency is reported as inconclusive [inhibitor, single point]. For `Cc1cccc(-n2ncc(C(=O)Nc3ccc4c(c3)OCO4)c2C2CCN(C(=O)OC(C)(C)C)CC2)c1`, the Potency was inconclusive [inhibitor, single point]. With `Cc1ccc(CSc2nc3[nH]ncc3c(=O)[nH]2)cc1` the Potency was inconclusive [inhibitor, partial curve]. In the case of `COC(CNC(=O)c1ccc(CS(=O)(=O)c2ccc(Br)cc2)o1)OC`, the Potency is reported as “inactive”. With `CCc1ccc(/C=C2\Oc3cc(OS(C)(=O)=O)ccc3C2=O)cc1` the Potency was inconclusive [inhibitor, single point]. In the case of `CCCCNc1c(C(=O)OCC)c(=O)[nH]c2ccccc12`, the Potency is reported as inconclusive [inhibitor, full curve]. For `CCCC(O)(CCC)C(=O)NN1CCCCC1`, the Potency was inconclusive [inhibitor, single point]. In the case of `CC(=O)OC1CC(OC(C)=O)[C@]2(C)C(CC(=O)[C@]3(C)C2CC[C@@]2(C)C(C(=O)O)OC(=O)C4OC423)C1(C)C` (stereo partly specified), the Potency is reported as “inactive”. For `Cc1ccc(C)c(NS(=O)(=O)c2ccccc2C)c1`, the Potency was “inactive”. For `Cc1ccc(C(=O)c2oc3ccccc3c2NC(=O)COc2ccc(C(C)(C)C)cc2)cc1`, the Potency was “inactive”. For `Cc1ccc(COc2cccc3cc(-c4noc(-c5ccc(C)cc5)n4)c(=O)oc23)cc1`, the Potency was inconclusive [inhibitor, partial curve]. For `CCOC(=O)c1oc2ccccc2c1NC(=O)c1cccc(OC)c1`, the Potency was active: 18.4 µM. For `CCOc1ccc(S(=O)(=O)N(C)CC(=O)NC2CCCC2)cc1`, the Potency was “inactive”. For `CC(C)C(=O)c1cc2c(cc1NC(=O)c1ccccc1F)OCCO2`, the Potency was inconclusive [inhibitor, full curve]. In the case of `O=C(CSc1nnc(C2CC2)n1Cc1ccccc1)c1cc2ccccc2o1`, the Potency is reported as inconclusive [inhibitor, single point]. For `COc1ccc(C(=O)NCc2nnc(SCC(=O)Nc3ccc(F)cc3)n2-c2ccccc2)cc1`, the Potency was inconclusive [inhibitor, single point]. For `COC(=O)c1cc(S(=O)(=O)N(C)Cc2ccco2)c[nH]1`, the Potency was “inactive”. For `CC1CN(C(=O)CCc2cc(C(C)(C)C)c(O)c(C(C)(C)C)c2)CC(C)O1` (stereo unspecified), the Potency was inconclusive [inhibitor, single point]. In the case of `CN1CCN(C(=O)CCc2nnc3ccc(N4CCC5(CC4)OCCO5)nn23)CC1`, the Potency is reported as “inactive”. With `Cc1cc(NC(=O)c2cccc(F)c2)ncc1NC(=O)c1ccco1` the Potency was inconclusive [inhibitor, partial curve, poor fit].
